# From PMC4336329 (PLoS ONE, 2015)
# About 2,200 (0.71%) of roughly 310,000 compounds showed an effect of 50% or more. The effect is printed as a negative number. The list shows a part of the results.
# Biological target: human ether-à-go-go-related gene (hERG) potassium channel (human, UniProt Q12809)
# Assay: primary screen, population patch clamp on CHO cells stably expressing hERG
# Sequence of human ether-à-go-go-related gene (hERG) potassium channel (Q12809 whole entry, looked up): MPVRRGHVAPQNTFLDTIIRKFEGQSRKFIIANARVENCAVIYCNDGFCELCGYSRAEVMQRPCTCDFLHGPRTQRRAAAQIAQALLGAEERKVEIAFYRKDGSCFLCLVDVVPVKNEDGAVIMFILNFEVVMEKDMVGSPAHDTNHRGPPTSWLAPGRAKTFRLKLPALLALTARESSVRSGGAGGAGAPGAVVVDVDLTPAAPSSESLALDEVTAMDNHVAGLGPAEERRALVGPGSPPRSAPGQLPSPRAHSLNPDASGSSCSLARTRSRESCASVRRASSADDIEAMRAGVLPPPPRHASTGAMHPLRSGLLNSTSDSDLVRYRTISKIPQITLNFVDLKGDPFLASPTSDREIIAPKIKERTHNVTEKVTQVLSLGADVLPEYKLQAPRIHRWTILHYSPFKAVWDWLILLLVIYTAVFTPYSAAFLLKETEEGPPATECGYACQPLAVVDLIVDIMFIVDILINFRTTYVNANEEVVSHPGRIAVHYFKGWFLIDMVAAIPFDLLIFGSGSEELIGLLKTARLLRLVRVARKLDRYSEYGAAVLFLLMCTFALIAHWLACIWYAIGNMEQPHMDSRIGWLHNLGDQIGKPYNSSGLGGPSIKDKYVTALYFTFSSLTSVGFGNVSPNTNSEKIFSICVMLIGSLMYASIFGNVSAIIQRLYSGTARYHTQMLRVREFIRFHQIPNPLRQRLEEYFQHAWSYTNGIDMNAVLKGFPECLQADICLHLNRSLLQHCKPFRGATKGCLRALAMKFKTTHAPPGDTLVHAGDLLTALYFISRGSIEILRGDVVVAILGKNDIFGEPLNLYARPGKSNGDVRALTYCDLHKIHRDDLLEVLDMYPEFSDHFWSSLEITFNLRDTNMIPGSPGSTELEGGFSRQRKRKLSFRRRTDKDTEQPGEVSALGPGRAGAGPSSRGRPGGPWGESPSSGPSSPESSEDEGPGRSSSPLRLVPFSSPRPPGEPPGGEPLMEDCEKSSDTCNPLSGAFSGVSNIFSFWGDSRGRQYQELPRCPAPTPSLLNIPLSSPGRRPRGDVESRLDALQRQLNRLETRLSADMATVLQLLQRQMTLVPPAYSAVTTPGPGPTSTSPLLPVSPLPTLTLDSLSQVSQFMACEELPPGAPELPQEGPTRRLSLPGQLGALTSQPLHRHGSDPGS
row,Compound,"hERG current change (%, negative = inhibition) at 1uM"
1,CN(C(=O)CSc1ccncc1)C1CCCN(Cc2ccccc2F)C1 (centres unmarked),12.1%
2,COc1cccc(N/C(N)=N/c2nc(CSc3ccccn3)cc(=O)[nH]2)c1,8.56%
3,C=CCOC(=O)Nc1c(C(=O)OC)[nH]c2ccccc12,10.5%
4,N#C/C(=C/c1ccccc1)C(=O)NCc1ccccc1,17.7%
5,CNS(=O)(=O)c1cccc(C(=O)Nc2cccnc2)c1,0.636%
6,CCOC(=O)N1CCN(S(=O)(=O)c2ccc(OCC(=O)OC)c(C)c2)CC1,-16.4%
7,CCC(=O)c1ccc(N2CCN(C(=O)c3ccc(Br)cc3)CC2)c(F)c1,6.41%
8,CS(=O)(=O)Nc1ccc2[nH]c(=O)[nH]c2c1,8.28%
9,CCCc1c(C(=O)Nc2cc(C)on2)cnn1-c1ccccc1,11.3%
10,C=CCn1cc([N+](=O)[O-])nc1C,12.4%
11,O=C(N/N=C/c1ccccc1Br)c1cccc(S(=O)(=O)N2CCOCC2)c1,2.68%
12,CCc1nc(NCCCn2ccnc2)c2oc3ccccc3c2n1.Cl,-20.2%
13,CCN1C(=O)[C@@H]2[C@H](C1=O)[C@@H]1C(=O)Nc3ccccc3C(=O)N1[C@@H]2c1cccc(Cl)c1,-5.85%
14,O=C(CSc1ccc2nnc(-c3ccccn3)n2n1)NCC1CCCO1 (centres unmarked),2.83%
15,CCOc1ccc(C(=O)NCCN(C)C)cc1,-1.24%
16,CCN1CCN(c2nc(N)c([N+](=O)[O-])c(Nc3ccc(C)c(C)c3)n2)CC1,-2.52%
17,Cc1ccc(N(C(=O)CNC(=O)c2ccco2)C(C(=O)NC2CCCC2)c2cccnc2)c(C)c1 (centres unmarked),14.7%
18,COc1cc(OC)cc(C(=O)Nc2nnc(NC(=S)Nc3ccccc3)s2)c1,7.45%
19,COc1ccc(C2CC(=O)C(C=NCCN3CCN(C(=S)Nc4ccccc4)CC3)=C(O)C2)cc1 (centres unmarked),11.3%
20,Cc1ccc(N(CC(=O)Nc2cccc(N(C)S(C)(=O)=O)c2)S(C)(=O)=O)cc1,7.4%
21,O=C(O)C(=O)O.c1ccc(-c2ccccc2OCCCCN2CCCCCC2)cc1,-48.2%
22,COC(=O)C/C=C/[C@@H](C)[C@@H](/C=N/OC[C@H]1O[C@H](c2ccccc2)C=C[C@@H]1Oc1ccc(OC)cc1)OC,8.99%
23,CCOC(=O)c1c(C2CC2)csc1NC(=O)COC(=O)c1ccc[n+]([O-])c1,11.1%
